For seven molecules, IC50 and viability, T/C results are on record in PubChem BioAssay AID2060500 (Molecular Pharmacology Branch, DTP, NCI, 2025).

A number of entries come with more than one value. This list holds those alone. The source may hold further records. Values that stand side by side repeat one measurement (runs, samples, wells, individuals or studies).

The test has as its system 596521-263-R-J1-PDC complex spheroids, viability % of control. As to the kind of experiment: Anticancer human tumor 596521-263-R-J1-PDC patient-derived soft tissue sarcoma cell line growth inhibition [GQUAD]. To be noted: for IC50: compound alone; for viability, T/C: stronger effect = lower value. An excerpt:
DNA G-quadruplex Stabilizer Agents in Combinations in Complex Spheroids
A high-throughput screen of multi-cell type tumor spheroids was designed to identify active combinations of DNA G-quadruplex stabilizer agents and targeted small molecules. Complex spheroids include a stromal component modeled by human endothelial cells (HUVEC) and fibroblasts modeled by human mesenchymal stem cells (MSCs). The concentration ranges selected for each drug and investigational agent were based upon clinically achievable concentrations if the clinical Cmax of the agent was known.
Compounds. The drugs and investigational agents: pidnarulex (CX-5461; NSC782164), APTO-253 (NSC789042), BRACO-19 (NSC847499), peposertib (NSC802822), ceralasertib (NSC780249), elimusertib (NSC800525), camonsertib (NSC841442), AZD-1390 (NSC803789), olaparib (NSC753686), talazoparib (NSC767125), ART-558 (NSC835418), sotorasib (NSC818433), MRTX-1133 (NSC836407), SN-38 (NSC673596), topotecan (NSC609699), etoposide (NSC141540), doxorubicin (NSC123127), gemcitabine (NSC613327), 5-fluorouracil (NSC19893), paclitaxel (NSC125973), vemurafenib (NSC761431), panobinostat (NSC761190), R-306465 (JNJ-16241199; NSC773264), adavosertib (NSC754352), TP-3654 (NSC805149), carboplatin (NSC241240), KSQ-4279 (NSC840948), and staurosporine (NSC755774) were obtained from the National Cancer Institute (NCI) Developmental Therapeutics Program Chemical Repository (34). The FDA-approved anticancer drug set is available from the NCI Developmental Therapeutics Program. […] The stock solutions were prepared in dimethyl sulfoxide (DMSO, Sigma-Aldrich, St. Louis, MO, cat. D2650) at 800-fold the tested concentration and stored at -70 degrees C prior to their use. All drugs and investigational agents were tested over a range starting from a high concentration at or near the clinical Cmax and decreasing in half-log increments. If the clinical Cmax for an agent had not been determined, the highest concentration tested was 10 microM.
2.3 Cell Culture. All cells were maintained in an incubator at 37 degrees C and 5% CO2 with 95% humidity. The PDC lines were cultured according to standard operating procedures established by the NCI PDMR. All PDCs were thawed and cultured in Matrigel-coated flasks prepared with a working solution of 1X Ham's F-12 nutrient mix, without supplementation (Invitrogen, cat. 11765054), 100 U/mL penicillin-streptomycin (Invitrogen, cat. 15140122), and 2.5% Matrigel (Corning Inc., cat. 354248) for the first three passages. The 857933-349-R-J2-PDC line was cultured in 6C/Colon 1B media, which includes advanced DMEM/F-12 (Thermo Fisher Scientific, cat. 12634028), 10 mM HEPES (Thermo Fisher Scientific, cat. 15630080), 1X GlutaMAX supplement (Thermo Fisher Scientific, cat. 35050061), 0.1 mg/mL primocin (InvivoGen, cat. ant-pm-2), 10% defined fetal bovine serum, heat inactivated (HyClone Laboratories Inc., cat. SH30070.03HI), 50% L-WRN conditioned media (ATCC, cat. CRL-3276), 1.25 mM N-Acetyl-L-cysteine (Sigma-Aldrich, cat. A9165), 10 mM nicotinamide (Sigma-Aldrich, cat. N0636), 1X B-27 supplement (Thermo Fisher Scientific, cat. 17504044), 1X N-2 supplement (Thermo Fisher Scientific, cat. 17502048), 10 microM Y-27632 dihydrochloride (Tocris Bioscience, cat. 1254), and 50 ng/mL human EGF recombinant protein (Thermo Fisher Scientific, cat. PHG0311). The 485176-168-R4-J1-PDC line was cultured in Panc media, which includes all 6C/Colon 1B media components plus 100 ng/mL human FGF-10 (Thermo Fisher Scientific, cat. 100-26), 500 nM SB-431542 (Selleckchem, cat. S1067), and gastrin (Tocris, cat. 3006).
[…]
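Further: spheroids exposed to drugs for 7 days before viability reading.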

As usually defined, the IC50 is the concentration that gives 50% inhibition. `C=CCn1c(=O)c2cnc(Nc3ccc(N4CCN(C)CC4)cc3)nc2n1-c1cccc(C(C)(C)O)n1`: the 50% inhibitory concentration (IC50) is listed as 603 nM, 5.77 µM, 380 nM.

In general, viability, T/C refers to the result in the treated group divided by that in the control group, in per cent. Take `Cc1[nH]c2ccccc2c1CCNCc1ccc(/C=C/C(=O)NO)cc1`: the viability, T/C (compound alone 0.316 µM) was 1.65%, 91.2%, 1.71%.

Turning to `COc1ncnc(C2CC2)c1-c1ncc2cnn(Cc3ccc(-c4nc(C(F)(F)F)cn4C(C)C)cc3)c2n1`, the viability, T/C (compound alone 10 µM) was 92.2%, 1.73%, 95.6%.

`CCCS(=O)(=O)Nc1ccc(F)c(C(=O)c2c[nH]c3ncc(-c4ccc(Cl)cc4)cc23)c1F`: the IC50 is 7.12 µM, 435 nM, 5.16 µM.

For `Cc1cnc(CNC(=O)c2c(=O)c3ccc(N4CCCN(C)CC4)nc3n3c2sc2ccccc23)cn1`, the IC50 (run of 04/16/2024) was 5.66 µM, 7.67 µM, 3.47 µM, 7.04 µM, > 10 µM, 3.69 µM, 3.03 µM, 6.74 µM.

On to `CC(=O)O[C@H]1C(=O)[C@@]2(C)[C@H]([C@H](OC(=O)c3ccccc3)[C@]3(O)C[C@H](OC(=O)[C@H](O)[C@@H](NC(=O)c4ccccc4)c4ccccc4)C(C)=C1C3(C)C)[C@]1(OC(C)=O)CO[C@@H]1C[C@@H]2O`, for which the viability, T/C is, setting by setting: (compound alone 1 µM) 28.5%, 0.82%, 26.9%; (compound alone 3.16 µM) 29.7%, 0.45%, 28.8%; (compound alone 10 µM) 27.8%, 0.32%, 28%.

For the molecule `O=C(NO)c1cnc(N2CCN(S(=O)(=O)c3ccc4ccccc4c3)CC2)nc1`, the viability, T/C is, setting by setting: (compound alone 1 µM) 0.67%, 26.4%, 0.71%; (compound alone 3.16 µM) 0.37%, 27.7%, 0.49%; (compound alone 10 µM) 0.28%, 26.9%, 0.33%.
